# Measured values: PubChem BioAssay AID686979 (National Center for Advancing Translational Sciences (NCATS), 2013)
# Several values for one entry are separate records, joined by “and”; a condition that tells them apart may be missing. Equal values may be shown once. Out of some 420,000 compounds screened, about 50,000 (12%) were called active. The shares of active, inactive and inconclusive entries below differ from those in the screen. Calls come from the whole dose curve; as a rule, active = well fitted inhibition curve with a large enough effect; inconclusive = small, poorly fitted or top-dose-only effect; inactive = flat fitted curve, though single readings scatter. No potency is given beside an inconclusive call; the fits are too rough.
# Assay: qHTS for Inhibitors of human tyrosyl-DNA phosphodiesterase 1 (TDP1): qHTS in cells in presence of CPT; note: nearly all actives have a fitted effect of over 55% in size
# Settings: chicken DT40 Tdp1-/-;hTDP1 cells + 20 nM CPT, ATP luminescence, 48 h; activity change, negative = growth inhibition: at 46.2 µM (top of the series)
# Method in brief: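 Chicken DT40 Tdp1-/- cells stably complemented with human TDP1 were seeded at 400 cells/well in medium containing 20 nM camptothecin, exposed to pin-transferred compounds, and grown at 37 °C for at least 48 hr. Viability was read as ATP luminescence.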
# % is set by controls: 0 for no effect and ±100 for the full control effect; potency is the fitted concentration of half-maximal effect; tags give direction and shape of the fitted curve.
SMILES,Potency,"activity change, negative = growth inhibition"
CCCc1ccc2oc(C(=O)NCCN3CCCC(C(N)=O)C3)c(C)c2c1 (stereo unspecified),"inconclusive [inhibitor, single point]",
C[C@H]1CN([C@@H](C)CO)C(=O)CCCn2nncc2CO[C@@H]1CN(C)Cc1cccc(O)c1,inactive,
C=CCNC(=O)/C(C#N)=C/c1ccccc1OCc1ccc(C(=O)OC)cc1,active: 2.91 µM,
CC(C)OC(=O)C1C2C=CC3(CN(Cc4cccs4)C(=O)C13)O2 (stereo unspecified),inactive,
CSc1nc(N)n2nc(-c3ccc(Cl)cc3)cc2n1,inactive,
Cc1ccc(NC(=O)C2(C)CCN2C(=O)Cc2ccccc2)cc1C (stereo unspecified),"inconclusive [inhibitor, partial curve, poor fit]",
CCOC(=O)C1(CC2CC2)CCN(Cc2cn[nH]c2-c2cccc(F)c2)CC1,"inconclusive [inhibitor, single point]",
CCCCn1c(N)c(N(CCOC)C(=O)COc2c(C)cccc2C)c(=O)[nH]c1=O,inactive,
COc1ccc(Br)cc1CN(C)C(=O)Cc1ccc(S(=O)(=O)N2CCOCC2)s1,"inconclusive [inhibitor, partial curve, poor fit]",
CC(=O)c1ccc(NC(=O)c2ccn[nH]2)cc1,"inconclusive [inhibitor, partial curve, poor fit]",
Cc1ccc(C2NC(=O)CCC2[N+](=O)[O-])cc1 (stereo unspecified),active: 18.4 µM,
CSc1nc2ccc(NS(=O)(=O)c3ccc4c(c3)OCCO4)cc2s1,"inconclusive [inhibitor, single point]",
O=C(CNC(=O)N1CC(=O)Nc2ccccc21)NCc1ccc(Cl)cc1,inactive,
COc1cc(O)c(C(=O)/C=C/c2ccccc2)c(OC)c1,active: 14.6 µM,
COc1cc(-c2noc(-c3nnn(-c4ccc(Cl)cc4)c3C)n2)cc(OC)c1OC,"inconclusive [inhibitor, single point]",
CCc1ccc(N2C(=O)CS(=O)(=O)C23C(=O)N(Cc2ccccc2)c2ccccc23)cc1 (stereo unspecified),"inconclusive [inhibitor, single point]",
CCOc1ncccc1C(=O)NCCc1c[nH]c2ccccc12,"inconclusive [inhibitor, single point]",
Cc1ccc(-c2ccc(CN3C(C)C(=O)N(Cc4cn(CC5CCCCC5)nn4)CCS3(=O)=O)cc2)cc1 (stereo unspecified),active: 16.4 µM,
Cc1cc(/C=N/n2cnnc2)c(C)n1-c1ccc2ncccc2c1,,inconclusive: -34.2% [inhibitor]
Cc1ccc(OCCCCN2CCCCC2)c(Br)c1,"inconclusive [inhibitor, single point]",
Cc1ccc(NC(=O)CSc2nsc(SCC(=O)Nc3ccc(C)cc3C)c2C#N)c(C)c1,"inconclusive [inhibitor, full curve]",
COc1ccc(OCCn2cc(/C=N/NC(=O)c3ccncc3)c3ccccc32)cc1,inactive,
COc1ccc(OC)c(NC(=O)c2ccc(-c3csc(C)n3)cc2)c1,"inconclusive [inhibitor, single point]",
CCCCOCCCNC(=S)Nc1ccc(S(=O)(=O)N2CCOCC2)cc1,"inconclusive [inhibitor, partial curve]",

SMILES,Potency,"activity change, negative = growth inhibition"
Cc1ccc(S(=O)(=O)N2CCN(C(=O)c3ccccc3)CC2)c(C)c1NS(C)(=O)=O,"inconclusive [inhibitor, full curve, poor fit]",
O=C(c1ccc2c(=O)n(Cc3ccc(Cl)cc3)c(=S)[nH]c2c1)N1CCOCC1,"inconclusive [inhibitor, single point]",
CCOc1ccc(NC(=S)N2CCCN(Cc3cccc(Cl)c3)C2)cc1,"inconclusive [inhibitor, single point]",
COc1cccc(C(=O)Nc2ccc(N3CCN(C(=O)c4ccco4)CC3)cc2)c1,active: 14.6 µM,
N#Cc1cnn2c(-c3ccccc3)ccnc12,inactive,
CCC(=O)Nc1ccc(C(=O)OCc2ccccc2)cc1,inactive,
COc1ccc(C(CNC(=O)c2cccc(S(=O)(=O)Nc3ccccc3Cl)c2)N2CCOCC2)cc1 (stereo unspecified),"inconclusive [inhibitor, single point]",
C#Cc1ccc(NC(=O)C2(C)CCN2C(=O)c2ccccc2CCc2ccccc2)cc1 (stereo unspecified),"inconclusive [inhibitor, single point]",
COc1ccc(-c2ccc(SCC(=O)N3CC(=O)Nc4ccccc43)nn2)cc1,"inconclusive [inhibitor, single point]",
Cc1cccn2c(=O)c3cc(C(=O)NC4CCCCCC4)sc3nc12,"inconclusive [inhibitor, single point]",
CCCc1nn(C)c2c(=O)[nH]c(-c3cc(S(=O)(=O)N4CCN(C)CC4)ccc3OCC)nc12,inactive,
Nc1nc2n(n1)C(c1c(F)cccc1Cl)CC(c1ccc(F)cc1)N2 (stereo unspecified),inactive,
CC(C)c1ccc(/C=C2\SC(=S)N(CCC(=O)N3CCCCC3CCO)C2=O)cc1 (stereo unspecified),"inconclusive [inhibitor, single point]",
COC(=O)c1c(NC(=O)C2=COCCO2)sc(C)c1C,inactive,
CC1CCCN(c2sc(S(C)(=O)=O)nc2S(=O)(=O)c2ccc(Cl)cc2)C1 (stereo unspecified),"inconclusive [inhibitor, single point]",
C#CC[N+]1(CC#Cc2ccccc2)CCCCC1,active: 16.4 µM,
Clc1c(CSc2nc3ccccc3o2)nc2ccccn12,"inconclusive [inhibitor, single point]",
CN(C)c1nc(Oc2ccc(OCCOc3ccccc3)nn2)nc(N(C)C)n1,"inconclusive [inhibitor, single point]",
CCCCN1C(=O)C(CC(=O)NCCc2ccccn2)CC(C(=O)N2CCCCCC2)=C1C (stereo unspecified),inactive,
Nc1nc2ccccc2n1C(=O)c1ccc(F)cc1,"inconclusive [inhibitor, single point]",
Cc1c2cnn(CC(=O)Nc3ccc(F)cc3F)c(=O)c2c(C)n1Cc1cccc(Cl)c1,inactive,
COc1cc(NC(=O)c2oc3ccccc3c2C)ccc1NC(=O)c1ccco1,"inconclusive [inhibitor, single point]",
COc1cc(CC(NC(C)=O)C(=O)NC2CCN(c3c(Cc4ccccc4)c(C)nc4ncnn34)CC2)cc(OC)c1 (stereo unspecified),inactive,
C=CCn1c(=O)c(C(=O)NCc2ccc3c(c2)OCO3)c(O)c2ccccc21,"inconclusive [inhibitor, single point]",

SMILES,Potency,"activity change, negative = growth inhibition"
Cc1ccc(NC(=O)C2CCCN(c3nnc(C)c4c(C)n(-c5ccccc5)nc34)C2)cc1Cl (stereo unspecified),active: 11.6 µM,
O=C(CSc1nccn1-c1ccccc1)N1CCc2ccccc21,inactive,
CCOC(=O)c1cc2c(=O)n3ccccc3nc2n(Cc2ccco2)c1=NC(=O)c1ccccc1OC,active: 13 µM and active: 16.4 µM,
COc1ccc(CCNC(=O)COC(=O)/C=C/c2ccc(OC)cc2OC)cc1,"inconclusive [inhibitor, single point]",
CCOc1cc(NC(=O)c2cccs2)c(OCC)cc1NC(=O)c1ccco1,"inconclusive [inhibitor, partial curve]",
CCN(CC)CCOC(=O)c1cccc2c1-c1ccccc1C2O (stereo unspecified),inactive,
CCOc1ccc(Nc2ccc([N+](=O)[O-])c3nonc23)cc1,"inconclusive [inhibitor, single point]",
Cc1cc(C)nc(NS(=O)(=O)c2ccc(NS(=O)(=O)c3ccc(C#N)cc3)cc2)n1,inactive,
COc1cc(C(=O)NCCC2=CCCCC2)ccc1OCc1c(C)noc1C,inactive,
O=C(NC1CCN(Cc2ccccc2)CC1)c1ccc2c(c1)[nH]c(=O)n2Cc1ccc(F)cc1,"inconclusive [inhibitor, single point]",
Clc1ccccc1-c1nnc2sc(-c3ccco3)nn12,inactive,
Cc1ccc(S(C)(=O)=O)cc1C(=O)OCC(=O)N(Cc1ccccc1)Cc1ccccc1,active: 20.6 µM,
CN(C)C(CNC(=O)c1cc(S(=O)(=O)N2CCOCC2)ccc1Cl)c1cccs1 (stereo unspecified),"inconclusive [inhibitor, single point]",
O=C(Cn1c(=O)n(-c2ccc(F)cc2)c(=O)c2sccc21)Nc1cccc(C(F)(F)F)c1,"inconclusive [inhibitor, single point]",
Cc1cc(C)cc(OCC(=O)Nc2cccc(-c3nc4ccccc4[nH]3)c2)c1,"inconclusive [inhibitor, single point]",
N#C/C(=C\c1cccs1)C(=O)N1CCOCC1,inactive,
COc1ccc(Cn2c(C(=O)O)c(CNCCc3ccccc3Cl)c3ccc(C)cc32)cc1,"inconclusive [inhibitor, single point]",
CC(/C=N\Nc1nnc2c(n1)[nH]c1c(C)cccc12)=C\c1ccco1,active: 9.2 µM,
O=C(NC1CCCCCC1)C1CCCN1S(=O)(=O)c1cccc2cccnc12 (stereo unspecified),"inconclusive [inhibitor, single point]",
COc1ccc(Cc2nc3ccc(C(=O)N4CCCC4)cc3o2)cc1OC,"inconclusive [inhibitor, single point]",
O=C(COC(=O)Cc1ccccc1[N+](=O)[O-])NC1CCCC1,inactive,
COc1cccc(CNC(=O)Cn2c(=O)oc3cc(S(=O)(=O)N4CCC(C)CC4)ccc32)c1,active: 7.31 µM,
CCCSc1ccc([C@H]2N[C@@](CC(C)C)(C(=O)OC)[C@H]3C(=O)N(C)C(=O)[C@@H]23)cc1,"inconclusive [inhibitor, single point]",
